{"source": "the RNAGym collection of RNA variant scans (doi:10.1073/pnas.2313332121)", "parents": {"B1": {"name": "TPR 5TU (parent)", "chain": "GGAUCUUCUCGAUCUAACAAAAAAGACAAAUCUGCCACAAAGCUUGAGAGCAUCUUCGGAUGCAGAGGCGGCAGCCUUCGGUGGCGCGAUAGCGCCAACGUUCUCAACUAUGACACGCAAAACGCGUGCUCCGUUGAAUGGAGUUUAUCAUG"}}, "note": "This sample is rich in variants without activity.", "data": [{"variants_of": "B1", "experiment": "polymerase ribozyme fitness, log enrichment relative to wild type (log ratio); higher = more active; in vitro selection for triplet polymerase activity", "method_in_brief": "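Mutant libraries were PCR-built and transcribed for each subunit of a heterodimeric triplet polymerase ribozyme and selected for one round in triplicate at −7 °C, frozen, before gel excision of extended constructs and streptavidin-bead capture. Input and output libraries were Illumina-sequenced, keeping genotypes with ≥10 input reads and ≥1 read per output. Fitness is a logarithmic ratio of genotype to wild-type enrichment, in base 2, using inverse-variance-weighted replicate averages.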", "values": [{"variant": "GGAUCUUCUCGAUCUAACCAAAAAGACAAAUCUGCCACAAAGCUUGAGAGCAUCUCCGGAUGCAGAGGCGGCAGCCUUCGGUGGCGCGAUAGCGCUAACGUUCUCAACUAUGACACGCAAAACGCGUGCUCCCUUGAAUGGAGUUUAUCAUG", "polymerase ribozyme fitness (log ratio)": -2.22}, {"variant": "GGAUCUUCUCGAUCUAACGGAAAAGACAAAUCUGCCACAAAGCUUGAGAGGAUCUUCGGGUGCAGAGGCGGCGGCCUUCGGUGGCGAGAUAGCGCCUAGGUUCUCAACUAUGACACGCAAAACGCGUGCUCAGUUGAAUGGAGUUUAUCAUG", "polymerase ribozyme fitness (log ratio)": "≤ -4.2"}, {"variant": "GGAUCUUCUCGAUCUAACGAGAAAGACAAAUCUGCCACAAAGCUUGAGAGCAUCUUCGGAUGCAGAGGCGGCAGCCUUCGGUGGCGCGAUAGAGCCAACGUUCUCAACUAUGACACGUAAAACGCGUGCUCCGUUGAAUGGAGUUUAUCAUG", "polymerase ribozyme fitness (log ratio)": "≤ -4.2"}, {"variant": "GGAUCUUCUCGAUCUAACGAGAAAGACAAAUCGGCCACAAAGCUUGAGAGCAUCUUCGGAUGCAGAGGCGGCAGCCUUCGGUGGCGCGAUAGCGCCAACGUUCUCAACUAUGACACGCAAAACGCGUCCUCCGUUGAAUGGAGUUUACCAUG", "polymerase ribozyme fitness (log ratio)": "≤ -4.2"}, {"variant": "GGAUCUUCUCGAUCUAACGAAUAAGACUAAUCUGCCACAAAGCUUGAGAGCAUCUUCGGAUGCAGAGGCGGCAGCCUUCGGUGGCGCGAUAGCGCCAACGUUCUCAACUAUGACACGCAGAACGCGUGCUCCGUUGAAUGGAGUUUAUCAUG", "polymerase ribozyme fitness (log ratio)": "≤ -4.2"}, {"variant": "GGAUCUUCUCGAUCUAACGAAUAAGACAAAUCUGCCACAAAGCUUGAGAGCAUCUUCGGAUGCAGAGGCAGCAGCCUUCGGUGGCGCGAUAGCGCCAACGUUCUUAACUAUGACACGCAAAACGCGUGCUCCGUUGAAUGGAGUUUAUCGUG", "polymerase ribozyme fitness (log ratio)": "≤ -4.2"}, {"variant": "GGAUCUUCUCGAUCUAACGAAAGAGACAAAUCUGCCACAAAGCUUGAGAGCAUCUUCGGAUGCAGACGCGGCAGCCUUCGGUGGCGUGAUAGCGCCAACGUUCUCAACUAUGACACGCAAAACGCGUGCUCCGUUGAAUGGAGUUUAUCAUG", "polymerase ribozyme fitness (log ratio)": "≤ -4.2"}, {"variant": "GGAUCUUCUCGAUCUAACGAAAAAGCCAAAUCUGCCACAAAGCUUGAGCGGAUCUUCGGAUGCAGAGGCGGCAGCCUUAGGUAGCGCGAUAGCGCCAACGUUCUCAACUAUGACACGCAAAACGCGUGCUCCGUUGAAUGGAGUUUAUAAUG", "polymerase ribozyme fitness (log ratio)": "≤ -4.2"}, {"variant": "GGAUCUUCUCGAUCUAACGAAAAAGUCAAAUCUGCCACAAAGCUUGAGAGCAUCUUCGGAUGCAGAGGCGGCAGCCUUCGGUGGAGCGAUAGCGCCCACGUUCUCAACUAUGACACGCUAAAUGCGUGCUCCGUUGAAUGGAGUUUAUCAUG", "polymerase ribozyme fitness (log ratio)": "≤ -4.2"}, {"variant": "GGAUCUUCUCGAUCUAACGAAAAAGACUAAUCUGCCACAAAGCUUGAGAGCAUCUUCGGAUGCAGAGGCGGCAGCCUUCGGUGGCGCGAUAGCGCCAAUGUUCUCAAGUAUGACACGCAAAACGCGUGCCCCGUUGAAUGGAGUUUAUCAUG", "polymerase ribozyme fitness (log ratio)": "≤ -4.2"}, {"variant": "GGAUCUUCUCGAUCUAACGAAAAAGACAAGUCUGCCAUAAAGCUUGAGAGCAUCUUCGGAUGCAGAGGCGGCAGCCUUCGGUGGGGCGUUAGCGCCAACGUUCUCAACUAUGACACGCAAAACGCGUGCGCCGUUGAAUGGAGUUUAUCAUG", "polymerase ribozyme fitness (log ratio)": "≤ -4.2"}, {"variant": "GGAUCUUCUCGAUCUAACGAAAAAGACAAAUCUGCCACCAAGUUUGAGAGCAUCUUCGGAUGCAGAGGCGGCGGCCUUCGGUAGCGCGAUAGCGCCAACGUUCUCAACUAUGACACGCAAAACGCGUUCUCCGUUGAAUGGAGUUUAUCAUG", "polymerase ribozyme fitness (log ratio)": "≤ -4.2"}, {"variant": "GGAUCUUCUCGAUCUAACGAAAAAGACAAAUCUGCCACUAAGCUUGAGAGCAUCUUUGGAUGUAGAGGCGGCAGCCUUCGGUGGCGCGAUAGCCCCAACGUUCUCAACUAUGACACGCAAAACGCGUGCUCCGUUGAAUGGAGGCUAUAACG", "polymerase ribozyme fitness (log ratio)": "≤ -4.2"}, {"variant": "GGAUCUUCUCGAUCUAACGAAAAAGACAAAUCUGCCACACAGCUUGAGAGCAUCUUCGGAUGCAGAGGCGGCAGCCUUAGGUAGCGCGAUAGCGCCAACGUUCUCAACUAUGACACGCAAAACGCGUGCUCCGUUGAAUGUAGUUUAUGAUG", "polymerase ribozyme fitness (log ratio)": "≤ -4.2"}, {"variant": "GGAUCUUCUCGAUCUAACGAAAAAGACAAAUCUGCCACAAAGCUUGUGAGCAUCUUCGGAUGCAGAGGCGGCAGCCUUCGGUGAGGCGAUAGCGCCAACGUUCUCAACUAUGACACGCAAAACGCGUGCUCCGUUGAAUGGAGUUUCUCAUG", "polymerase ribozyme fitness (log ratio)": "≤ -4.2"}, {"variant": "GGAUCUUCUCGAUCUAACGAAAAAGACAAAUCUGCCACAAAGCUUGUGAGCAUCUUCGGAUGCAGAGGCGGCAGCCUUCGGUGUCGCGAUAGCGCAAGUCUUCUCAACUUUGACACGCAAAACGCGUGCUCCGUUGAAUGGAGUUUAUCAUG", "polymerase ribozyme fitness (log ratio)": "≤ -4.2"}, {"variant": "GGAUCUUCUCGAUCUAACGAAAAAGACAAAUCUGCCACAAAGCUUGAGGGCAUCUUCGGAUGCGGAGGCGGCUGCCUUCGGUGGCGCGAUAGCGCCAACGUUCUCAACUAUGACACGCAAAACGAGUGCUGCGUUGAAUGGAGUUUAUCACG", "polymerase ribozyme fitness (log ratio)": "≤ -4.2"}, {"variant": "GGAUCUUCUCGAUCUAACGAAAAAGACAAAUCUGCCACAAAGCUUGAGAGCGUCUUCAGAUGCAGAGGCGGCAGCCUUCGGUGGCGCGAUAGGGCCAACGUCCUCAACUAUGACACGCAAAACGCGUGCUCCGUGGAAUGGAAUUUAUCAUG", "polymerase ribozyme fitness (log ratio)": "≤ -4.2"}, {"variant": "GGAUCUUCUCGAUCUAACGAAAAAGACAAAUCUGCCACAAAGCUUGAGAGCAUCUUCGGAUGCAGGGGCGGCAGCCUUCGGUGGCGCGAUAGCGCCAACGUUCUCAACUAUGACACGCAAAACGCGUGCUCCGUUGAAUGGAGUUUAUCAUG", "polymerase ribozyme fitness (log ratio)": "≤ -4.2"}]}]}
